Source: the supplement of paper PMC8728848
The list shows a part of the results.

Experiments:
Experiment in all cases: glycan array binding signal (z-score within array); higher = stronger binding
Details in all cases: glycan notation: IUPAC condensed, linker removed
Neu5Ac(a2-3)Gal = biological target: Neu5Ac(a2-3)Gal
In short: (§1)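 The binding signal is a Z-score computed within each array. Data were drawn from 3228 arrays in the Consortium for Functional Glycomics database, restricted to those with a known protein sequence. Scores were averaged over arrays of the same protein sequence at different concentrations or buffers, and over linkers, and negative values can be taken as non-binding.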

[1] = biological target: Neu5Ac(a2-3)Gal(b1-3)GalNAc
In short: as §1

[2] = biological target: Neu5Ac(a2-3)Gal(b1-3)GalNAc(b1-3)Gal(a1-4)Gal(b1-4)Glc
In short: as §1

[3] = biological target: Neu5Ac(a2-3)Gal(b1-3)GalNAc(b1-4)Gal(b1-4)Glc
In short: as §1

[4] = biological target: Neu5Ac(a2-3)Gal(b1-3)GalNAc(b1-4)[Neu5Ac(a2-3)]Gal(b1-4)Glc
In short: as §1

[5] = biological target: Neu5Ac(a2-3)Gal(b1-3)GalNAc(b1-4)[Neu5Ac(a2-8)Neu5Ac(a2-3)]Gal(b1-4)Glc
In short: as §1

[6] = biological target: Neu5Ac(a2-3)Gal(b1-3)GalNAc6S
In short: as §1

[7] = biological target: Neu5Ac(a2-3)Gal(b1-3)GlcNAc
In short: as §1

[8] = biological target: Neu5Ac(a2-3)Gal(b1-3)GlcNAc(b1-2)Man
In short: as §1

[9] = biological target: Neu5Ac(a2-3)Gal(b1-3)GlcNAc(b1-2)Man(a1-3)[GlcNAc(b1-4)][Neu5Ac(a2-3)Gal(b1-3)GlcNAc(b1-2)Man(a1-6)]Man(b1-4)GlcNAc(b1-4)GlcNAc
In short: as §1

[10] = biological target: Neu5Ac(a2-3)Gal(b1-3)GlcNAc(b1-2)Man(a1-3)[Neu5Ac(a2-3)Gal(b1-3)GlcNAc(b1-2)Man(a1-6)]Man(b1-4)GlcNAc(b1-4)GlcNAc
In short: as §1

[11] = biological target: Neu5Ac(a2-3)Gal(b1-3)GlcNAc(b1-2)[Neu5Ac(a2-3)Gal(b1-3)GlcNAc(b1-4)]Man(a1-6)[Neu5Ac(a2-3)Gal(b1-3)GlcNAc(b1-2)Man(a1-3)]Man(b1-4)GlcNAc(b1-4)GlcNAc
In short: as §1

[12] = biological target: Neu5Ac(a2-3)Gal(b1-3)GlcNAc(b1-3)Gal(b1-3)GlcNAc
In short: as §1

[13] = biological target: Neu5Ac(a2-3)Gal(b1-3)GlcNAc(b1-3)Gal(b1-4)GlcNAc
In short: as §1

[14] = biological target: Neu5Ac(a2-3)Gal(b1-3)GlcNAc(b1-3)GalNAc
In short: as §1

[15] = biological target: Neu5Ac(a2-3)Gal(b1-3)GlcNAc(b1-6)GalNAc
In short: as §1

[16] = biological target: Neu5Ac(a2-3)Gal(b1-3)GlcNAc6S
In short: as §1

[17] = biological target: Neu5Ac(a2-3)Gal(b1-3)[Fuc(a1-4)]GlcNAc
In short: as §1

[18] = biological target: Neu5Ac(a2-3)Gal(b1-3)[Fuc(a1-4)]GlcNAc(b1-3)Gal(b1-3)[Fuc(a1-4)]GlcNAc
In short: as §1

[19] = biological target: Neu5Ac(a2-3)Gal(b1-3)[Fuc(a1-4)]GlcNAc(b1-3)Gal(b1-4)[Fuc(a1-3)]GlcNAc
In short: as §1

[20] = biological target: Neu5Ac(a2-3)Gal(b1-3)[GlcNAc(b1-6)]GalNAc
In short: as §1

[21] = biological target: Neu5Ac(a2-3)Gal(b1-3)[Neu5Ac(a2-6)]GalNAc
In short: as §1

[22] = biological target: Neu5Ac(a2-3)Gal(b1-3)[Neu5Ac(a2-6)]GlcNAc(b1-3)[Fuc(a1-3)[Gal(b1-4)]GlcNAc(b1-6)]Gal(b1-4)Glc
In short: as §1

[23] = biological target: Neu5Ac(a2-3)Gal(b1-3)]Neu5Ac(a2-3)Gal(b1-4)]GlcNAc
In short: as §1

Neu5Ac(a2-3)Gal(b1-4)Glc = biological target: Neu5Ac(a2-3)Gal(b1-4)Glc
In short: as §1

[24] = biological target: Neu5Ac(a2-3)Gal(b1-4)GlcNAc
In short: as §1

[25] = biological target: Neu5Ac(a2-3)Gal(b1-4)GlcNAc(b1-2)Man
In short: as §1

[26] = biological target: Neu5Ac(a2-3)Gal(b1-4)GlcNAc(b1-2)Man(a1-3)[GlcNAc(b1-4)][Neu5Ac(a2-3)Gal(b1-4)GlcNAc(b1-2)Man(a1-6)]Man(b1-4)GlcNAc(b1-4)GlcNAc
In short: as §1

[27] = biological target: Neu5Ac(a2-3)Gal(b1-4)GlcNAc(b1-2)Man(a1-3)[Neu5Ac(a2-3)Gal(b1-4)GlcNAc(b1-2)Man(a1-6)]Man(b1-4)GlcNAc(b1-4)GlcNAc
In short: as §1

[28] = biological target: Neu5Ac(a2-3)Gal(b1-4)GlcNAc(b1-2)Man(a1-3)[Neu5Ac(a2-3)Gal(b1-4)GlcNAc(b1-2)Man(a1-6)]Man(b1-4)GlcNAc(b1-4)[Fuc(a1-6)]GlcNAc
In short: as §1

[29] = biological target: Neu5Ac(a2-3)Gal(b1-4)GlcNAc(b1-2)Man(a1-3)[Neu5Ac(a2-6)Gal(b1-4)GlcNAc(b1-2)Man(a1-6)]Man(b1-4)GlcNAc(b1-4)GlcNAc
In short: as §1

[30] = biological target: Neu5Ac(a2-3)Gal(b1-4)GlcNAc(b1-2)[Neu5Ac(a2-3)Gal(b1-4)GlcNAc(b1-4)]Man(a1-3)[GlcNAc(b1-4)][Neu5Ac(a2-3)Gal(b1-4)GlcNAc(b1-2)[Neu5Ac(a2-3)Gal(b1-4)GlcNAc(b1-6)]Man(a1-6)]Man(b1-4)GlcNAc(b1-4)GlcNAc
In short: as §1

[31] = biological target: Neu5Ac(a2-3)Gal(b1-4)GlcNAc(b1-2)[Neu5Ac(a2-3)Gal(b1-4)GlcNAc(b1-4)]Man(a1-3)[GlcNAc(b1-4)][Neu5Ac(a2-3)Gal(b1-4)GlcNAc(b1-4)Man(a1-6)]Man(b1-4)GlcNAc(b1-4)GlcNAc
In short: as §1

[32] = biological target: Neu5Ac(a2-3)Gal(b1-4)GlcNAc(b1-2)[Neu5Ac(a2-3)Gal(b1-4)GlcNAc(b1-6)]Man(a1-6)[Neu5Ac(a2-3)Gal(b1-4)GlcNAc(b1-2)Man(a1-3)][GlcNAc(b1-4)]Man(b1-4)GlcNAc(b1-4)GlcNAc
In short: as §1

[33] = biological target: Neu5Ac(a2-3)Gal(b1-4)GlcNAc(b1-3)Gal
In short: as §1

[34] = biological target: Neu5Ac(a2-3)Gal(b1-4)GlcNAc(b1-3)Gal(b1-3)GlcNAc
In short: as §1

[35] = biological target: Neu5Ac(a2-3)Gal(b1-4)GlcNAc(b1-3)Gal(b1-4)GlcNAc
In short: as §1

[36] = biological target: Neu5Ac(a2-3)Gal(b1-4)GlcNAc(b1-3)Gal(b1-4)GlcNAc(b1-2)Man(a1-3)[Neu5Ac(a2-3)Gal(b1-4)GlcNAc(b1-3)Gal(b1-4)GlcNAc(b1-2)Man(a1-6)]Man(b1-4)GlcNAc(b1-4)GlcNAc
In short: as §1

[37] = biological target: Neu5Ac(a2-3)Gal(b1-4)GlcNAc(b1-3)Gal(b1-4)GlcNAc(b1-3)Gal(b1-4)GlcNAc
In short: as §1

[38] = biological target: Neu5Ac(a2-3)Gal(b1-4)GlcNAc(b1-3)Gal(b1-4)GlcNAc(b1-3)Gal(b1-4)GlcNAc(b1-2)Man(a1-3)[Neu5Ac(a2-3)Gal(b1-4)GlcNAc(b1-3)Gal(b1-4)GlcNAc(b1-3)Gal(b1-4)GlcNAc(b1-2)Man(a1-6)]GalNAc
In short: as §1

[39] = biological target: Neu5Ac(a2-3)Gal(b1-4)GlcNAc(b1-3)Gal(b1-4)GlcNAc(b1-3)GalNAc
In short: as §1

[40] = biological target: Neu5Ac(a2-3)Gal(b1-4)GlcNAc(b1-3)Gal(b1-4)GlcNAc(b1-3)[Neu5Ac(a2-3)Gal(b1-4)GlcNAc(b1-3)Gal(b1-4)GlcNAc(b1-6)]GalNAc
In short: as §1

[41] = biological target: Neu5Ac(a2-3)Gal(b1-4)GlcNAc(b1-3)Gal(b1-4)GlcNAc(b1-6)[Gal(b1-3)]GalNAc
In short: as §1

[42] = biological target: Neu5Ac(a2-3)Gal(b1-4)GlcNAc(b1-3)Gal(b1-4)[Fuc(a1-3)]GlcNAc
In short: as §1

[43] = biological target: Neu5Ac(a2-3)Gal(b1-4)GlcNAc(b1-3)GalNAc
In short: as §1

B1: Banana lectin (Musa acuminata) (protein)
chain: MNGAIKVGAWGGNGGSAFDMGPAYRIISVKIFSGDVVDAVDVTFTYYGKTETRHFGGSGGTPHEIVLQEGEYLVGMKGEFGNYHGVVVVGKLGFSTNKKSYGPFGNTGGTPFSLPIAAGKISGFFGRGGDFIDAIGVYLEP
For B1, the “glycan array binding signal (z-score)” value (Neu5Ac(a2-3)Gal) was -0.193, the “glycan array binding signal (z-score)” value [1] was -0.193 and the “glycan array binding signal (z-score)” value [2] was -0.193. For the same binder, the “glycan array binding signal (z-score)” value [3] was -0.165, the “glycan array binding signal (z-score)” value [4] was -0.193 and the “glycan array binding signal (z-score)” value [5] was -0.19. For the same binder, the “glycan array binding signal (z-score)” value [6] was -0.209, the “glycan array binding signal (z-score)” value [7] was -0.194 and the “glycan array binding signal (z-score)” value [8] was -0.195. For the same binder, the “glycan array binding signal (z-score)” value [9] was -0.143, the “glycan array binding signal (z-score)” value [10] was -0.186 and the “glycan array binding signal (z-score)” value [11] was 0.276. The “glycan array binding signal (z-score)” value [12] was -0.192, the “glycan array binding signal (z-score)” value [13] was -0.195 and the “glycan array binding signal (z-score)” value [14] was -0.193. For the same binder, the “glycan array binding signal (z-score)” value [15] was -0.194, the “glycan array binding signal (z-score)” value [16] was -0.194 and the “glycan array binding signal (z-score)” value [17] was -0.191. For the same binder, the “glycan array binding signal (z-score)” value [18] was -0.14, the “glycan array binding signal (z-score)” value [19] was -0.136 and the “glycan array binding signal (z-score)” value [20] was -0.195. The “glycan array binding signal (z-score)” value [21] was -0.191, the “glycan array binding signal (z-score)” value [22] was -0.19 and the “glycan array binding signal (z-score)” value [23] was -0.196. For the same binder, the “glycan array binding signal (z-score)” value (Neu5Ac(a2-3)Gal(b1-4)Glc) was -0.193, the “glycan array binding signal (z-score)” value [24] was -0.192 and the “glycan array binding signal (z-score)” value [25] was -0.19. For the same binder, the “glycan array binding signal (z-score)” value [26] was -0.191, the “glycan array binding signal (z-score)” value [27] was -0.186 and the “glycan array binding signal (z-score)” value [28] was -0.172. The “glycan array binding signal (z-score)” value [29] was -0.18, the “glycan array binding signal (z-score)” value [30] was -0.193 and the “glycan array binding signal (z-score)” value [31] was -0.194. The “glycan array binding signal (z-score)” value [32] was -0.2, the “glycan array binding signal (z-score)” value [33] was -0.194 and the “glycan array binding signal (z-score)” value [34] was -0.195. For the same binder, the “glycan array binding signal (z-score)” value [35] was -0.195, the “glycan array binding signal (z-score)” value [36] was -0.172 and the “glycan array binding signal (z-score)” value [37] was -0.196. The “glycan array binding signal (z-score)” value [38] was -0.119, the “glycan array binding signal (z-score)” value [39] was -0.193 and the “glycan array binding signal (z-score)” value [40] was -0.179. The “glycan array binding signal (z-score)” value [41] was -0.195, the “glycan array binding signal (z-score)” value [42] was -0.195 and the “glycan array binding signal (z-score)” value [43] was -0.193.
